Measured values published in PubChem BioAssay AID1963576 (National Center for Advancing Translational Sciences (NCATS), 2024).
About 60 (0.1%) of roughly 46,000 compounds were called active. Another 3% or so got no clear call; they are omitted. The call rests on the fitted dose curve; in most records, active means well fitted inhibition curve with a large enough effect; inconclusive means small, poorly fitted or top-dose-only effect; inactive means no such curve, though single readings can be large or run the other way. The list shows a part of the results.

Assay: Primary qHTS assay for Inhibitors of ovarian cancer metastasis using an organotypic tumor microenvironment (TME) model. Further: nearly all actives have a fitted effect of over 65% in size.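 On activity change, negative = inhibition: plate controls were DMSO wells for no effect and tomatine positive control wells for full effect.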
Conditions: SKOV3ip1-GFP adhesion/invasion on 3D omental model, fluorescence; series mostly up to 45.8 µM; activity change, negative = inhibition: at the top concentration
How it was run: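 A 3D layer of primary human omental fibroblasts, mesothelial cells, fibronectin and collagen I, grown 48 hr, received SKOV3ip1-GFP cells in serum-free medium plus compounds at 0.36-46 umol/L. After 2 hr RT and 16 hr 37 C, fixed adherent GFP cells were counted; normalized to DMSO and tomatine.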

outcome, inactive:
Cc1ccc(C)n1-c1nnc(N2CCC(C(=O)NCc3ccc(F)cc3)CC2)s1
Cc1cc(NS(=O)(=O)c2ccc3nc(-c4ccccc4)[nH]c3c2)ccc1Br
CCc1nc2cccnc2n1-c1ccc(CC(=O)Nc2ccccc2Cl)cc1
COc1ccc(Cl)cc1NC(=O)c1cc(S(=O)(=O)N2CCC(C)CC2)cn1C
CCN1CCN(C(c2cccc(F)c2)c2c(O)cc(C)n(CCOC)c2=O)CC1 (stereo not drawn)
Cc1cccc(C)c1OCCCCn1c(C2CC(=O)N(c3ccc(F)cc3)C2)nc2ccccc21 (stereo not drawn)
COC(=O)c1ccccc1NC(=O)c1noc2c1CSc1ccccc1-2

Activity change, negative = inhibition, inactive:
COc1ccccc1-c1noc(CSc2nnc(Cc3ccccc3)n2-c2ccc(C)c(C)c2)n1 1.86%
CCOC(=O)c1c(N)n(-c2ccccc2CC)c2nc3ccccc3nc12 14.1%
CC(C)C(=O)Nc1ccc2nc(SCC(=O)N3CCOCC3)sc2c1 -1.71%
Cc1cccc(NC(=O)CSc2nc3c(oc4ccccc43)c(=O)n2Cc2ccco2)c1 35.2%
CCOc1ccc(CNC(=O)CCC(=O)N2CC3CCCN3c3ccccc32)cc1 (stereo not drawn) 0.887%
O=S(=O)(c1ccc(Br)cc1)c1nnn2c1nc(NC1CCCCCC1)c1sccc12 -5.19%
Cc1ccc(N2CC(c3nnc(NC(=O)c4ccco4)s3)CC2=O)cc1Cl (stereo not drawn) 2.6%
O=C(O)c1cc(=O)[nH]c(=O)[nH]1 -6.99%
Cc1ccc(-n2nc3ccc(NC(=O)c4cc5ccccc5o4)cc3n2)cc1 23.8%
Cn1c(=O)c2sccc2n2c(CCC(=O)N3CCN(c4ccccc4)CC3)nnc12 14.3%
CCC(=O)Nc1sc2c(c1C(=O)Nc1ccccc1C)CCC(C)C2 (stereo not drawn) -9.07%
CCc1ccc(NC(=O)N2CCN(Cc3cc(=O)n4nc(-c5ccccc5OC)sc4n3)CC2)cc1 5.41%
CCOC(=O)c1cccc(NC(=O)NCCc2c(C)nn(C)c2C)c1 -1.18%
COc1ccc2nc(NC(=O)c3ccc(S(=O)(=O)N4CCC(C)CC4)cc3)sc2c1 31.7%
CCC(Cc1ccccc1)NC(=O)c1oc(=O)c2ccccc2c1-c1ccccc1 (stereo not drawn) 5.88%
COc1ccc(-c2nc(CSCC(=O)NCCc3ccc(C)cc3)c(C)o2)cc1OC 3.7%
O=S(=O)(NCC(c1ccco1)N1CCN(c2ccc(F)cc2)CC1)c1ccccc1 (stereo not drawn) 2.46%
CCn1c(=N)c(C(=O)NCc2cccnc2)cc2c(=O)n3cc(C)ccc3nc21 41.3%
COc1ccc(-c2cc(C(=O)Nc3cc(C)ccc3O)no2)cc1OC 15%
COC(=O)c1cc2occc2n1CC(=O)Nc1cccc(SC)c1 -0.245%
O=c1n(CCCN2CCN(c3cccc(Cl)c3)CC2)nc2ccccn12 8%
